Source: publication PMC4336329 (PLoS ONE, 2015)
Hit rate of the full screen: of about 310,000 compounds, about 2,200 (0.71%) showed an effect of 50% or more. The effect is printed as a negative number. The list shows a part of the results.

Biological target: human ether-à-go-go-related gene (hERG) potassium channel (human, UniProt Q12809)
Experiment: primary screen, population patch clamp on CHO cells stably expressing hERG

human ether-à-go-go-related gene (hERG) potassium channel, sequence (Q12809 whole entry, looked up): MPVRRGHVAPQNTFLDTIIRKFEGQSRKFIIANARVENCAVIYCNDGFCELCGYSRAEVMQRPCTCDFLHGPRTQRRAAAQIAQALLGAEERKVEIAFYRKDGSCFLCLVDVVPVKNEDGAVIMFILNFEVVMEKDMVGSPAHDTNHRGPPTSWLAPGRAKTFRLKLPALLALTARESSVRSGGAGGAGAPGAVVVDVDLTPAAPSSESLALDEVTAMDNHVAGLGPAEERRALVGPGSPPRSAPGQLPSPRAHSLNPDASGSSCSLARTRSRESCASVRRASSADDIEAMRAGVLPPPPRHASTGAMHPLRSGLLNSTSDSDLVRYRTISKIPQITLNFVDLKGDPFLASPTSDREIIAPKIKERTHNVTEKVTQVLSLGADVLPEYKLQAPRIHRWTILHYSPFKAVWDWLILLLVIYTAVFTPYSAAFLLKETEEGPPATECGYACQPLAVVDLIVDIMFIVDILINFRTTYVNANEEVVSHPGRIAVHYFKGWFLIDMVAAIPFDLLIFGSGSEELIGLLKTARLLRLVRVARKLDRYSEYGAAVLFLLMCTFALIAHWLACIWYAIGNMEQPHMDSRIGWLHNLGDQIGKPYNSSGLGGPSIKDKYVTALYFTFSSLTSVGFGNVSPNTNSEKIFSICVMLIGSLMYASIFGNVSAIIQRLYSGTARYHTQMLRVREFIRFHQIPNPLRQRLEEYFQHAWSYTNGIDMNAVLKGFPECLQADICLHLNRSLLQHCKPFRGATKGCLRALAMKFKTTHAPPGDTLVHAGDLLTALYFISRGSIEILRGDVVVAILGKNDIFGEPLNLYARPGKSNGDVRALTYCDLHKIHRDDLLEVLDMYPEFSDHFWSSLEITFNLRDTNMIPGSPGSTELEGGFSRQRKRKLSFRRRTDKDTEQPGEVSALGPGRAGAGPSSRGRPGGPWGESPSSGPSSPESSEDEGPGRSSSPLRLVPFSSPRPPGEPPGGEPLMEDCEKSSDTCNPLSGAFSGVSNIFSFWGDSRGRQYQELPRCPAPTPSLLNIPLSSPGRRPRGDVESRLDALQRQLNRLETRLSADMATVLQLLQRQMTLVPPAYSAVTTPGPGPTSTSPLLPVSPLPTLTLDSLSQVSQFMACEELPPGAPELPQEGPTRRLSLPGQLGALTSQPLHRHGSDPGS

| SMILES | hERG current change (%, negative = inhibition) at 1uM [%] |
| --- | --- |
| CC(C)=NOc1nc(NC(=O)NS(=O)(=O)c2ccccc2Cl)nc(N(C)C)n1 | 15.4 |
| O=C(NN1CC(=O)N(c2cc(Cl)cc(Cl)c2)CC1=O)c1sccc1Cl | 11.9 |
| CCN(C(=O)CN1C(=O)NC2(CCCc3ccccc32)C1=O)c1ccc(F)cc1 (stereo not shown) | 10.6 |
| O=C(CCNC(=O)c1ccccc1)NCc1ccccc1F | 6.19 |
| Cc1csc(Nc2nc(N)c(C(=O)Nc3ccccc3)o2)n1 | 17.3 |
| CC(=O)c1cccc(NC(=O)C2CC(c3ccc(F)cc3)=NO2)c1 (stereo not shown) | 10.3 |
| CSc1ccccc1OCc1cc(C(=O)NC(C)Cc2cccc(C)n2)no1 (stereo not shown) | 1.95 |
| Cc1ccc(SCC2=NNC(=O)C2)cc1 | -8.67 |
| C=CCn1c(=O)c2ccccc2n2c(SC(C)C(=O)Nc3nc(-c4ccccc4)cs3)nnc12 (stereo not shown) | -0.718 |
| O=C(COC(=O)[C@H](Cc1ccccc1)NC(=O)c1cccs1)NC1CC1 | 4.45 |
| NC(=O)C1(N2CCCCC2)CCN(C(=O)NC23CC4CC(CC(C4)C2)C3)CC1 | -7.69 |
| CC1CCN(C(=O)c2[nH]cnc2C(=O)N(C)Cc2ccccc2)CC1 | 15.3 |
| CCOC(=O)N/N=C(\C)c1ccccc1OC(F)F | 9.71 |
| COc1ccc(N(CC(=O)Nc2cc(C(=O)O)ccc2C)S(=O)(=O)c2c(C)noc2C)cc1 | -12.7 |
| COCCCNC(=O)c1ccc2c(=O)n(C3CCCC3)c(=S)[nH]c2c1 | -1.77 |
| Cc1ccc(C)c(S(=O)(=O)N2CCCOC2CNC(=O)C(=O)NCc2ccccn2)c1 (stereo not shown) | 4.78 |
| I.c1ccc(Sc2cccc3ccccc23)c(CNC2=NCCN2)c1 | -2.32 |
| CCOc1cc(/C=C/C(=O)c2ccc(OC)c(CN3CCOCC3)c2)cc(Br)c1O | 2.82 |
| COC(=O)c1ccc(NC(=O)C2CCCN2C(=O)OCc2ccccc2)cc1 (stereo not shown) | 11.2 |
| CC(C)(C)NC(=O)C[n+]1ccc(C(N)=O)cc1.[Cl-] | 8.64 |
| Nc1c(C(=O)Nc2ccccc2)sc2nc(-c3ccco3)ccc12 | 14.6 |
| O=C(Nc1ccncc1)Nc1cccc(Cl)c1Cl | 13 |

| SMILES | hERG current change (%, negative = inhibition) at 1uM [%] |
| --- | --- |
| COC(=O)[C@H](CC(C)C)NC(=O)CCc1nnc(COc2ccccc2)o1 | 19.8 |
| Cc1ccc2c(c1)C(c1ccc(F)cc1)N(C(=O)c1ccc(S(=O)(=O)N(C)C)cc1)CC(=O)N2 (stereo not shown) | 8.73 |
| CS(=O)(=O)N1CCN(C(=O)CCc2ccccc2)CC1 | 13.4 |
| CS(=O)(=O)c1ccc2nc(NC(=O)c3cccs3)sc2c1 | -9.29 |
| Cc1ocnc1C(=O)Nc1ccc(Cl)cc1 | 6.22 |
| O=C1[C@H]2[C@@H](c3ccc(F)cc3)N3C(=O)N(c4cccc(Cl)c4)C(=O)[C@@]3(Cc3ccc(Cl)cc3)[C@H]2C(=O)N1C1CCCCC1 | 13.8 |
| O=C(Nc1nccs1)c1ccc(Cl)c(S(=O)(=O)N2CCOCC2)c1 | -0.0249 |
| CC(C)(C)CN1CCN(Cc2cccnc2)CC1CCO (stereo not shown) | 12 |
| COC(=O)c1ccc(NC(=O)Nc2cccc(F)c2)cc1 | 8.87 |
| COc1ccc(OC)c(C(c2nnnn2CCc2ccccc2)N2CCC(C(N)=O)CC2)c1 (stereo not shown) | 2.91 |
| O=C(NNC(=O)c1ccccc1O)c1ccc(S(=O)(=O)Nc2ccccc2F)cc1 | 1.09 |
| COC(=O)c1ccc(CNC(=O)COC(=O)C2CCC(C(C)(C)C)CC2)cc1 (stereo not shown) | 7.94 |
| N=C1C(c2ccccc2)=C(O)CN1c1ccc2c(c1)OCO2 | 12.8 |
| CC(OC(=O)CCCOc1ccccc1)C(=O)Nc1ccc(Cl)cn1 (stereo not shown) | 8.95 |
| CN(CCc1cn[nH]c1)C(=O)CC1C(=O)NCCN1Cc1cccc(Oc2ccccc2)c1 (stereo not shown) | 13.1 |
| COC(=O)Cc1c(C(=O)OC)nnn1-c1ccc(OC(F)(F)F)cc1 | 14.3 |
| CC(=O)NCC1CCCN(C(=O)c2oc3c(F)cccc3c2C)C1 (stereo not shown) | 16.6 |
| COc1ccccc1NC(=O)CSc1nc(=O)n(CCN2CCOCC2)c2c1CCC2 | 4 |
| COc1ccc(CCNC(=O)C(=O)NCC2OCCN2S(=O)(=O)c2ccc(Cl)cc2)cc1 (stereo not shown) | 6.15 |
| Cc1ccc(C(=O)NNC(=O)c2cccc(Br)c2)cc1 | 1.59 |
| COC(=O)c1ccc(NC(=O)CC(=O)Nc2ccc(C(=O)OC)cc2)cc1 | 12.3 |
